# Hit rate of the full screen: of about 130,000 compounds, about 1,200 (0.92%) were called active. The shares of active, inactive and inconclusive entries below differ from those in the screen. The call rests on the fitted dose curve; in most records, active means well fitted cell-killing curve with a large enough effect; inconclusive means small, poorly fitted or top-dose-only effect; inactive means no such curve, though single readings can be large or run the other way. Where the call is inconclusive, the potency comes from a doubtful curve fit.
# Assay: qHTS Screen for Compounds that Selectively Target Cancer Cells with p53 Mutations: Cytotoxicity of p53ts Cells at the Permissive Temperature; further: nearly all actives have a fitted effect of over 55% in size;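 on activity change, negative = cytotoxicity: 0% = DMSO and -100% = full killing by reference compound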
# Settings: H1299-p53A138V at 32C, ATP luminescence viability, 24 h; activity change, negative = cytotoxicity: at 46.1 µM (top of the series)
# Outline: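 H1299-p53 A138V cells (temperature-sensitive p53) exposed 24 h to up to 46 uM compound at 32C, where p53 is wild-type in conformation. Viability read as ATP luminescence and normalised to DMSO and 100 uM tamoxifen. AC50 fitted with the Hill equation.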
# Potency means the concentration at half of the fitted maximal effect; tags describe the fitted curve by direction and shape.
Compound,Potency,"activity change, negative = cytotoxicity"
CCOC(=O)c1cccc(NC(=O)Cn2ncc3c4ccccc4n(Cc4ccccc4)c3c2=O)c1,"inconclusive: 31.6 µM [cytotoxic, single point]",–
CCOC(=O)c1sc(NC(=O)c2cccs2)cc1C,"inconclusive: 5.01 µM [cytotoxic, partial curve]",–
O=C(CCS(=O)(=O)c1nc(-c2ccc3c(c2)OCO3)cc(C(F)(F)F)n1)Nc1ccccc1F,"inconclusive: 25.1 µM [cytotoxic, single point]",–
O=c1oc2ccccc2c(O)c1CN1CCCCC1,"inconclusive: 31.6 µM [cytotoxic, single point]",–
CN1CCN(c2ccc(C(=O)c3ccc(F)cc3)cc2)CC1,"inconclusive: 10 µM [cytotoxic, partial curve]",–
CC(C)C(=O)Nc1ccc(NC(=O)c2ccccn2)cn1,active: 7.94 µM,–
Cc1c(/C=N/NC(=O)CNc2ccccc2)c2ccccn2c1C(=O)c1ccncc1,"inconclusive: 0.0398 µM [cytotoxic, full curve, poor fit]",–
Cc1ccccc1OCC(O)Cn1c(=N)n(CCN2CCCCC2)c2ccccc21 (stereo not given),"inconclusive: 20 µM [cytotoxic, single point]",–
CCOc1ccc(S(=O)(=O)Nc2ccc3c(c2)N(C(C)=O)CCC3)cc1,inactive,–
Cc1cncn1CCc1nc2c3ccccc3nc(SCC(=O)Nc3cccc(Cl)c3)n2n1,"inconclusive: 25.1 µM [cytotoxic, single point]",–
COCCN1C(=O)c2[nH]nc(-c3cc(C)ccc3O)c2C1c1ccc(C(C)C)cc1 (stereo not given),"inconclusive: 31.6 µM [cytotoxic, single point]",–
CCOC(=O)c1cc(NC(=O)c2cnccn2)cc(C(=O)OCC)c1,inactive,–
Cc1ccc2c(CC(=O)Nc3ccc(N4CCN(C)CC4)cc3C)coc2c1,"inconclusive: 10 µM [cytotoxic, partial curve]",–
Clc1ccc(C2=Nn3c(nnc3-c3cccnc3)SC2)s1,inactive,–
COc1cccc(Cn2c(=O)n(Cc3ccco3)c(=O)c3oc4ccccc4c32)c1,inactive,–
Cn1c(Sc2ccc(-c3cccnc3)n2C)ccc1-c1cccnc1,–,inactive: 2.12% [at 9.22 µM]
CSc1nc2ccc(NC(=O)C3CCCO3)cc2s1 (stereo not given),"inconclusive: 15.8 µM [cytotoxic, partial curve]",–
Cc1nnc(SCC(=O)NCc2ccccc2Cl)c2nn(-c3ccccc3)c(C)c12,"inconclusive: 25.1 µM [cytotoxic, single point]",–
COc1cc(OC)cc(C(=O)N2CCN(C(=O)COc3ccc4ccccc4c3)CC2)c1,"inconclusive: 25.1 µM [cytotoxic, single point]",–
Cc1cccc(-n2ncc3c(N4CCCC(C)C4)ncnc32)c1 (stereo not given),active: 3.98 µM,–
Cc1ccc(S(=O)(=O)c2c(C)nn(C(C)(C)C)c2OC(=O)c2ccco2)cc1,"inconclusive: 31.6 µM [cytotoxic, single point]",–
C=C(C)C1CC=C(C)C(O)C1 (stereo not given),"inconclusive: 0.0079 µM [cytotoxic, full curve, poor fit]",–
COc1ccc2c(c1)N(CC[C@H]1CCCCN1C)c1ccccc1S2,–,inactive: 3.37% [at 9.22 µM]
CCOC(=O)c1cc(C)[nH]c(=S)c1C#N,"inconclusive: 0.199 µM [cytotoxic, full curve, poor fit]",–

Compound,Potency,"activity change, negative = cytotoxicity"
Cc1ccc(NC(=O)CSc2nnc3[nH]c(=O)cc(-c4ccccc4)n23)cc1Cl,"inconclusive: 1 µM [cytotoxic, full curve]",–
O=C(Nc1ccccc1C(F)(F)F)c1ccc2oc(=O)c(S(=O)(=O)c3ccc(F)cc3)cc2c1,active: 10 µM,–
O=c1cc(-c2ccccc2O)oc2cc(O)cc(O)c12,"inconclusive: 12.6 µM [cytotoxic, partial curve]",–
CCn1c(C(=O)NCc2cc(Br)ccc2OC)cc2oc3ccccc3c21,"inconclusive: 10 µM [cytotoxic, partial curve]",–
Oc1c(CN2CCc3ccccc3C2)cc(Cl)c2cccnc12,active: 12.6 µM,–
COc1ccc(C2C3=C(CCCC3=O)Nc3nc(SCc4ccccc4)nn32)cc1OC (stereo not given),"inconclusive: 25.1 µM [cytotoxic, single point]",–
CCOC(=O)c1c(-c2ccccc2)csc1NC(=O)c1nn(CC)cc1Br,inactive,–
COc1ncc2nc(-c3ccc(F)cc3)c(=O)n(-c3ccccc3)c2n1,inactive,–
O=C(O)[C@@H]1[C@@H]2C[C@@H]3[C@@H](OC(=O)[C@@H]31)[C@H]2Br,–,inactive: -6.22% [at 9.22 µM]
COc1ccc2nc(NC(=O)c3ccoc3C)sc2c1,active: 7.94 µM,–
O=C(O)c1cc(-c2ccc(-c3ccccc3)cc2)nc2cc3ccccc3cc12,"inconclusive: 3.16 µM [cytotoxic, partial curve]",–
COc1cccc(-n2c(=O)c3sc4ccccc4c3n(CC(=O)Nc3ccccc3OC)c2=O)c1,inactive,–
CCOC(=O)C1CCN(S(=O)(=O)C(F)(F)c2nc3ccccc3s2)CC1,"inconclusive: 12.6 µM [cytotoxic, single point]",–
COC(=O)c1cc(N2C(=O)C3C(C2=O)C2(C)C=CC3(C)O2)ccc1Cl (stereo not given),"inconclusive: 20 µM [cytotoxic, single point]",–
O=C1c2[nH]nc(-c3ccccc3)c2C(c2ccccc2)N1c1cccc(C(F)(F)F)c1 (stereo not given),"inconclusive: 31.6 µM [cytotoxic, single point]",–
CCNC(=O)CCCOc1ccc(Cl)cc1Cl,inactive,–
CCOc1ccc(NC(=O)c2c(NC(=O)Cc3ccccc3)sc3c2CCCC3)cc1,inactive,–
Nc1c(C(=O)NCc2ccc3c(c2)OCO3)c2nc3ccccc3nc2n1CCCN1CCOCC1,"inconclusive: 31.6 µM [cytotoxic, single point]",–
Cc1ccc(C2CC(C(F)F)n3ncc(C(=O)Nc4cnn(Cc5ccccc5C)c4)c3N2)cc1 (stereo not given),"inconclusive: 15.8 µM [cytotoxic, single point]",–
COc1ccc(-c2nc3ccc(NS(=O)(=O)c4ccccc4)cc3o2)cc1,"inconclusive: 31.6 µM [cytotoxic, single point]",–
COc1ccccc1-c1cc(C(F)(F)F)nc(S(=O)(=O)CCCC(=O)Nc2cc(C)ccc2O)n1,"inconclusive: 25.1 µM [cytotoxic, single point]",–
Cc1cccc(NC(=O)c2ccc3ccccc3n2)n1,"inconclusive: 25.1 µM [cytotoxic, single point]",–
O=C(Nc1onc2c1CCCC2)c1ccc(Cl)cc1,"inconclusive: 10 µM [cytotoxic, partial curve]",–
Cc1ccccc1OCc1nc(-c2ccc(NC(=O)c3ccco3)cc2)no1,"inconclusive: 3.98 µM [cytotoxic, partial curve, poor fit]",–

Compound,Potency,"activity change, negative = cytotoxicity"
Cc1cc(C(=O)Nn2cnnc2)cs1,inactive,–
Cc1ccc(NC(=O)C(=O)NCC(c2cccnc2)N2CCOCC2)cc1Cl (stereo not given),"inconclusive: 12.6 µM [cytotoxic, partial curve]",–
CCOc1cccc(N)c1,"inconclusive: 0.0079 µM [cytotoxic, full curve, poor fit]",–
Cc1ccc(O)c(NC(=O)c2cc(-c3ccc4c(c3)OCO4)on2)c1,"inconclusive: 2.51 µM [cytotoxic, full curve]",–
COc1ccccc1CNc1nc(-c2ccc(C(=O)N(C)C)cc2)nc2ccccc12,inactive,–
CC(C)(C)c1ccc(-c2nnc(SCC(=O)O)n2N)cc1,"inconclusive: 15.8 µM [cytotoxic, single point]",–
COc1ccc(-c2noc(N3CCC(C(=O)N4CCN(c5ccccn5)CC4)CC3)n2)cc1,"inconclusive: 31.6 µM [cytotoxic, single point]",–
Oc1ccc2[nH]cnc2c1CN1CCCCC1,inactive,–
COc1cccc(-c2ccc3c(N)c(C(=O)c4ccc(Br)cc4)sc3n2)c1,"inconclusive: 31.6 µM [cytotoxic, single point]",–
Clc1ccccc1-c1nc(Nc2ccncc2)c2ccccc2n1,inactive,–
COCCn1c(C)cc(C(=O)CSc2nnc3ccccn23)c1C,"inconclusive: 10 µM [cytotoxic, partial curve]",–
O=C(Nc1ccc(Oc2ccccc2)cc1)c1ccco1,"inconclusive: 10 µM [cytotoxic, partial curve]",–
CCOC(=O)N1CCN(Cc2nc3cc(NC(=O)c4ccc(OC)cc4)ccc3n2C(C)C)CC1,"inconclusive: 3.16 µM [cytotoxic, single point]",–
Cc1ccc(NC(=O)CSc2nnc(CCCCCNC(=O)OC(C)(C)C)o2)c(C)c1,"inconclusive: 20 µM [cytotoxic, partial curve, poor fit]",–
CC(C)(C)Nc1cccccc1=O,inactive,–
CCOc1ccc(-n2nc(CO)c(C(=O)NCCCc3ccccc3)n2)cc1,"inconclusive: 15.8 µM [cytotoxic, single point]",–
O=C(c1cc(-c2ccco2)on1)N1CCN(C(c2ccccc2)c2ccccc2)CC1,inactive,–
CC(C)(C)N1C(=O)Cc2c1nc(N)c1c(N)nc(N3CCCCC3CO)c(C#N)c21 (stereo not given),"inconclusive: 31.6 µM [cytotoxic, single point]",–
CCOC(=O)c1cccc(Nc2cc(-c3ccccc3)ncn2)c1,"inconclusive: 25.1 µM [cytotoxic, single point]",–
CC(/C=N/NC(=O)c1cc(-c2ccc(C)s2)[nH]n1)=C\c1ccccc1,"inconclusive: 0.251 µM [cytotoxic, full curve, poor fit]",–
Cc1ccc2nc(-c3sc4nc(C)ccc4c3N)[nH]c2c1,active: 12.6 µM,–
Nc1nc(-c2nc3ccccc3[nH]2)cs1,active: 15.8 µM,–

# From PubChem BioAssay AID924 (National Center for Advancing Translational Sciences (NCATS), 2007)
